Data on 57 compounds can be found in article PMC4336329 (PLoS ONE, 2015).

The structures appear in SMILES notation. Among all 310,000 compounds or so, about 2,200 (0.71%) showed an effect of 50% or more. The effect is printed as a negative number. The list shows a part of the results.

human ether-à-go-go-related gene (hERG) potassium channel, sequence (Q12809 whole entry, looked up): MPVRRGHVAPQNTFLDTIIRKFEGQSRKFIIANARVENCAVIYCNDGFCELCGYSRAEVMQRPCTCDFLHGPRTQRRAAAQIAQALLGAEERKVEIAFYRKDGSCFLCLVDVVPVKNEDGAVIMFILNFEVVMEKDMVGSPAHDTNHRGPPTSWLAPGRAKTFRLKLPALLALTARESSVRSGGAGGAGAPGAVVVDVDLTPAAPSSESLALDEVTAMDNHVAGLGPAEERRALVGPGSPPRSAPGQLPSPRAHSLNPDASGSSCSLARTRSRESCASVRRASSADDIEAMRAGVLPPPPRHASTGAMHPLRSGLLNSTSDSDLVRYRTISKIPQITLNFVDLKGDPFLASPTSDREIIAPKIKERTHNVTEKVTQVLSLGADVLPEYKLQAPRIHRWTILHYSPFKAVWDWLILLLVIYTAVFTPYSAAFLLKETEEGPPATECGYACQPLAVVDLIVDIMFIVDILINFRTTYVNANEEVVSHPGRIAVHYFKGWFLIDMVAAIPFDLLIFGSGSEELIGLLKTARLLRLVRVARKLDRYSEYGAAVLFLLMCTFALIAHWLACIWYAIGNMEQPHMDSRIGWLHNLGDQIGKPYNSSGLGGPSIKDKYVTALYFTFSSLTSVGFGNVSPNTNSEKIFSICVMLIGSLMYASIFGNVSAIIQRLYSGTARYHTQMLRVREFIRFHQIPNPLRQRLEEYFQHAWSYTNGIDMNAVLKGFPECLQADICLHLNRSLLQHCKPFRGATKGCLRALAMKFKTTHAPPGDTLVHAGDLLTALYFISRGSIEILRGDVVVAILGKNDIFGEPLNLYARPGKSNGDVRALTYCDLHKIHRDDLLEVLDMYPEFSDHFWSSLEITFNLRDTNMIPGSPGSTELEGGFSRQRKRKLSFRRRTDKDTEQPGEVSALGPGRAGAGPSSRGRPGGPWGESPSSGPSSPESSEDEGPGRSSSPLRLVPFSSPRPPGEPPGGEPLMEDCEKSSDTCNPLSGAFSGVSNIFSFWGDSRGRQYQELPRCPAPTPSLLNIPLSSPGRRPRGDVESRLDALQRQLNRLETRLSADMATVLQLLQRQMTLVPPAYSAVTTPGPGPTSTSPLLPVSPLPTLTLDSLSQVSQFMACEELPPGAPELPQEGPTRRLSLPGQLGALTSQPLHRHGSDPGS

The assay has as its target human ether-à-go-go-related gene (hERG) potassium channel (human, UniProt Q12809). Put plainly: primary screen, population patch clamp on CHO cells stably expressing hERG.
As for `Br.Cc1ccc2nc(-c3ccccc3)cn2c1`, the “hERG current change (%, negative = inhibition) at 1uM” value was determined as 15.4%.
For the compound `CC(C)c1ccc(NC(=O)COC(=O)c2ccc(CN3CCCC3=O)cc2)cc1`, the “hERG current change (%, negative = inhibition) at 1uM” value is 7.5%.
Then `Cc1oc(-c2ccccc2Cl)nc1CN1CCCC1c1ccc(F)cc1` (stereo not drawn), with -6.07%.
`O=C(NC1CCCN(Cc2ccc(Cl)cc2)C1)c1ccccc1C(F)(F)F` (stereo not drawn): the “hERG current change (%, negative = inhibition) at 1uM” value is given as 7.83%.
Consider `Cc1nc([N+](=O)[O-])c(N2CCN(Cc3ccccc3)CC2)n1Cc1ccccc1`, for which the “hERG current change (%, negative = inhibition) at 1uM” value is on record as -23.3%.
Then `CN1CCC2(CC1)N=C(c1ccc(F)cc1)C(=S)N2C(=O)c1ccc(C(C)(C)C)cc1`, with 7.39%; and `Cc1ccc(-n2c(SCC(=O)NCCC3=CCCCC3)nc3n[nH]c(C)c3c2=N)cc1Cl`, with -7.1%; and `CCN(CC(=O)NC1CCS(=O)(=O)C1)C(=O)/C=C/c1cccs1` (stereo not drawn), with 24.8%.
As for `COc1cccc(OCCNC(=O)c2ccc(C)cc2)c1`, the “hERG current change (%, negative = inhibition) at 1uM” value was 9%.
As to `C/C(CCc1oc2ccc(Br)cc2c1-c1ccc(C)o1)=N/O`, the “hERG current change (%, negative = inhibition) at 1uM” value was found to be 7%.
The figure for `CCC(C)[C@H]1CNCCN1CCc1cccc2ccccc12` (stereo partly drawn) is 12.6%.
For the compound `CCCn1nnnc1SCC(=O)N1C(C)CCCC1C` (stereo not drawn), the “hERG current change (%, negative = inhibition) at 1uM” value worked out at 19.3%.
As for `O=C(c1ccc2c(c1)N(Cc1ccccc1)CCS2)N1CCC2(CC1)OCCO2`, the “hERG current change (%, negative = inhibition) at 1uM” value amounted to 0.257%.
For `COc1ccc(CC2(C)OC(c3ccc(C)cc3)=NN2C(C)=O)cc1` (stereo not drawn), the “hERG current change (%, negative = inhibition) at 1uM” value is on record as 4.85%.
As to `Cc1cc(C)nc(/N=C(\N)Nc2ccc(CC(=O)OC(C)C)cc2)n1`, the “hERG current change (%, negative = inhibition) at 1uM” value is -18.7%.
In the case of `COC(=O)CSc1ncc(S(=O)(=O)c2ccccc2)c(=O)[nH]1`, the “hERG current change (%, negative = inhibition) at 1uM” value was found to be 16.7%.
The figure for `CC(OC(=O)CCCN=C1NS(=O)(=O)c2ccccc21)C(=O)c1ccccc1` (stereo not drawn) is 2.12%.
Regarding `Cc1ccc(C)c(N2CCN(c3nnnn3-c3ccccc3)CC2)c1`, the “hERG current change (%, negative = inhibition) at 1uM” value came to 13.4%.
As to `O=C(NN=C1CCN(Cc2ccccc2)CC1)c1ccccc1O`, the “hERG current change (%, negative = inhibition) at 1uM” value came to 14.4%.
As for `COc1ccc(C(=O)CC(c2ccccc2)C2C(=O)CCCC2=O)cc1` (stereo not drawn), the “hERG current change (%, negative = inhibition) at 1uM” value came out at 13.4%.
As for `COC(=O)CSc1nnc(CNC(=O)c2ccco2)n1-c1ccc(F)cc1`, the “hERG current change (%, negative = inhibition) at 1uM” value is on record as -2.52%.
Then `COc1ccc(C(=O)Nc2ccc(NC(=O)c3cccs3)cn2)cc1`, with 11.7%.
As for `O=C(O)CCC(=O)Nc1ccc(Oc2ncnc3cc(Cl)ccc23)nc1`, the “hERG current change (%, negative = inhibition) at 1uM” value is 14.5%.
For `Cc1ccc(C(=O)Nc2cc(Cl)ccc2-n2cncn2)o1`, the “hERG current change (%, negative = inhibition) at 1uM” value was -8.27%.
Consider `CCc1cc(C(N)=S)ccn1`, for which the “hERG current change (%, negative = inhibition) at 1uM” value was determined as 9.04%.
Then `CC(C)(C)c1ccc(C(=O)NCc2nnc(SCC(=O)NCc3ccco3)o2)cc1`, with 11.1%; and `Cc1c(NC(=O)c2cccnc2Cl)c(=O)n(-c2ccccc2)n1C`, with 11.3%.
With `NC(=O)c1ccccc1NC(=O)/C=C/c1cccc(Cl)c1`, the “hERG current change (%, negative = inhibition) at 1uM” value is -11.7%.
As to `CCN(CC)C(=O)c1sc(NC(=O)c2ccc3c(c2)OCO3)c(C(N)=O)c1C`, the “hERG current change (%, negative = inhibition) at 1uM” value is 10.6%.
With `CCOc1ccc(N2CC(C(=O)Nc3ccccc3OC)CC2=O)cc1` (stereo not drawn), the “hERG current change (%, negative = inhibition) at 1uM” value came out at 7.93%.
For `CCCCNC(=O)C1CCC(CNc2nc(=S)[nH]c3ccccc23)CC1` (stereo not drawn), the “hERG current change (%, negative = inhibition) at 1uM” value is 8.87%.
The figure for `Cc1ccc(Cn2nnc3c(=O)[nH]c(C4CCCN(C(=O)Nc5ccc(F)cc5)C4)nc32)cc1` (stereo not drawn) is 1.7%.
Take `CCC(Sc1ccc(C(=O)O)cc1)C(=O)O` (stereo not drawn): the “hERG current change (%, negative = inhibition) at 1uM” value is on record as 15.3%.
Then `O=C1CCCC2=C1C(c1ccc(O)c(O)c1)Nc1ccc3ncccc3c12` (stereo not drawn), with 15.4%; and `CN(CCNC(=O)C1CCC(=O)N(Cc2ccc(Cl)cc2)C1)CCc1ccccc1` (stereo not drawn), with -50.5%.
For the compound `CCOC(=O)c1c(C)[nH]c(C(=O)NNC(=O)c2ccc(Br)cc2)c1C`, the “hERG current change (%, negative = inhibition) at 1uM” value was -3.62%.
`COc1ccc(NC(=O)COc2cc(O)c3c(c2)OC(C)(C)CC3=O)cc1`: the “hERG current change (%, negative = inhibition) at 1uM” value was -1.52%.
`O=C(CCN1C(=O)S/C(=C/c2ccc(F)cc2)C1=O)Nc1ccc(O)c(C(=O)O)c1`: the “hERG current change (%, negative = inhibition) at 1uM” value turned out to be 13%.
In the case of `COc1ccc(NC(=O)NNC(=O)COc2ccc(Cl)cc2C)cc1OC`, the “hERG current change (%, negative = inhibition) at 1uM” value is reported as 6.09%.
As for `Cc1cccc(NC(=O)C2CCCN2/C=C/C(=O)C(F)(F)F)c1C` (stereo not drawn), the “hERG current change (%, negative = inhibition) at 1uM” value is 3.39%.
The figure for `CC12CCC(=O)N1C(C(=O)Nc1nc(-c3ccccc3)cs1)CS2` (stereo not drawn) is 13.4%.
Take `CC1CN(C(=O)/C=C/c2ccc([N+](=O)[O-])s2)CC(C)O1` (stereo not drawn): the “hERG current change (%, negative = inhibition) at 1uM” value is given as -24.7%.
As for `CCc1ccccc1NC(=O)C1NC(=O)CC1c1ccccc1` (stereo not drawn), the “hERG current change (%, negative = inhibition) at 1uM” value is 1.61%.
The figure for `Cc1ccc2nc(-c3cccc(NC(=O)c4ccc5c(c4)OCCO5)c3)oc2c1` is 7.4%; for `Cn1nc(-c2ccccc2)cc1NC(=O)CCCC(=O)O` it is 16.4%.
The figure for `Cn1/c(=N/NC(=O)c2ccccc2Br)sc2ccccc21` is 12.8%; for `C/C(=N\N1C(C)CCCC1C)c1ccccc1O` (stereo not drawn) it is 7.51%.
`O=C(Nc1cc(-c2ccccc2)[nH]n1)c1ccc(Cl)cc1`: the “hERG current change (%, negative = inhibition) at 1uM” value worked out at 3.64%.
In the case of `COc1ccccc1C(=O)COC(=O)/C=C/c1ccccc1`, the “hERG current change (%, negative = inhibition) at 1uM” value was determined as 2.69%.
With `Cc1c(C#N)c2ncn(Cc3ccccn3)c(=O)c2n1-c1ccccc1`, the “hERG current change (%, negative = inhibition) at 1uM” value is reported as -0.997%.
As for `COC(=O)C1=C(C)N(Cc2ccc(OC)cc2)C(=O)C1`, the “hERG current change (%, negative = inhibition) at 1uM” value was 16.1%.
The figure for `O=C(c1ccccc1)c1ccccc1NC(=O)C1CCCN1Cc1ccccc1` (stereo not drawn) is 15.1%; for `CC(=O)N1CCN(S(=O)(=O)c2ccc(S(=O)(=O)NC3CC3)cc2)CC1` it is -2.23%; for `CCOc1ccc(NC(=S)NC(=O)c2c(Cl)c(C)nn2C)c([N+](=O)[O-])c1` it is 6.94%.
For the compound `CC1(C)COCN1S(=O)(=O)c1ccc(C(=O)Nc2nnc(-c3ccc(Cl)s3)o2)cc1`, the “hERG current change (%, negative = inhibition) at 1uM” value worked out at 5.31%.
The figure for `O=S(=O)(c1ccccc1)c1ccc(NCc2ccco2)cc1` is -5.31%; for `COc1ccc(C(=O)NCC(c2ccco2)N2CCc3ccccc32)cc1` (stereo not drawn) it is -0.333%.
